The test system of this assay is L1210 leukemia ip in BDF1 mice, survival T/C. Description: NCI In Vivo Anticancer Drug Screen. Data for tumor model L1210 Leukemia (intraperitoneal) in B6D2F1 (BDF1) mice. To be noted: endpoint: mean survival time, higher = longer survival.

Results on 3 molecules are retold here after PubChem BioAssay AID248 (DTP/NCI, 2004).

Toxic doses and inconclusive results are not listed. For part of its entries the source gives two or more results. This list holds those alone. There may be further records. The values listed for one entry differ for a reason that is not stated; dose, time, organism, isomer or construct need not be as stated for each record.

Consider `COc1ccc(CC(N)C(=O)O)cc1N(CCCl)CCCl` (stereo not drawn), for which the T/C (dose: 0.3 mg/kg/injection, schedule: Q01DX009 (ip), vehicle: carboxymethylcellulose (CMC)) was 122 % of control and 151 % of control.

With `C1OC1[C@@H]1CC[C@H]1C1CO1` (stereo partly drawn), the T/C (dose: 200.0 mg/kg/injection, schedule: Q01DX001 (ip), vehicle: saline) is 118 % of control and 161 % of control.

On to `COc1cc([C@@H]2c3cc4c(cc3[C@@H](OC3OC5COC(C)OC5C(O)C3O)[C@H]3COC(=O)[C@H]23)OCO4)cc(OC)c1O` (stereo partly drawn), for which the T/C (dose: 8.0 mg/kg/injection, schedule: Q01DX009 (ip), vehicle: Klucel (hydroxypropylcellulose) (HPC)) is reported as 107 % of control, 394 % of control, 480 % of control.
